Source: PubChem BioAssay AID1768 (National Center for Advancing Translational Sciences (NCATS), 2009)
The campaign covered roughly 270,000 compounds. About 620 (0.23%) were called active. Inconclusive means that the source gave no clear call. Such entries were picked first, then a sample of the others. The call rests on the fitted dose curve; in most records, active means well fitted inhibition curve with a large enough effect in the polarisation, with a control signal flat (not every such curve was filed as active); inconclusive means small, poorly fitted or top-dose-only effect, or effect the other way, or a change in a side signal; inactive means no such curve, though single readings can be large or run the other way; the % refers to the polarisation. Potencies beside an inconclusive call are fits to weak or partial responses and may not hold up. A note “side channel” means that the fit belongs to a control or component signal, not to the main read-out.

target: Menin (Homo sapiens) (UniProt O00255); experiment: qHTS Assay for Inhibitors Targeting the Menin-MLL Interaction in MLL Related Leukemias: Competition With Texas Red Labeled MLL-derived Mutant Peptide; details: fluorescence polarization; FP activity change, negative = inhibition: at 61.6 µM (top of the series); on FP activity change, negative = inhibition: % of control where 0% means no effect
UniProt O00255, sequence (O00255 whole entry, looked up): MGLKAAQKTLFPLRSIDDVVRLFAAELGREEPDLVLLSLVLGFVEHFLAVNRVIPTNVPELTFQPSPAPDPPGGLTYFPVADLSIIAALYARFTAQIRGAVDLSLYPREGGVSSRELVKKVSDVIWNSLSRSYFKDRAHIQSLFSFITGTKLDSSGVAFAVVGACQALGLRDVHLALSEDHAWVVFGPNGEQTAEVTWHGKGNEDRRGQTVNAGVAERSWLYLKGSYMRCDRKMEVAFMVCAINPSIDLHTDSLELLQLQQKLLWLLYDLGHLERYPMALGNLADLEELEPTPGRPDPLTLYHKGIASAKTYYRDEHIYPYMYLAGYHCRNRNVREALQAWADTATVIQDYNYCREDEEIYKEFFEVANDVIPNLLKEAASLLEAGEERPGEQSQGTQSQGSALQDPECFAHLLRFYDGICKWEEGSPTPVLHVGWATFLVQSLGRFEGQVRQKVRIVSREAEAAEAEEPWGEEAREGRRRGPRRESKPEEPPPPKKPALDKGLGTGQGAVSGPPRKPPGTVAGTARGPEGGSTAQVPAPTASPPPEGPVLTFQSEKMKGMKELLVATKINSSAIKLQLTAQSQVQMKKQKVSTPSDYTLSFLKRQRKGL
Potency means the concentration at half of the fitted maximal effect; tags describe the fitted curve by direction and shape or compound fluorescence and quenching.

SMILES	Potency	FP activity change, negative = inhibition
COC(=O)c1c(NC(=O)CSc2nnc(-c3ccco3)n2Cc2ccccc2)sc(C)c1C	inconclusive: 3.98 µM [fluorescent, side channel, full curve, poor fit]	–
COc1ccccc1NC(=O)C1CCCN(S(=O)(=O)c2c(C)noc2C)C1 (stereo not drawn)	inconclusive: 3.98 µM [quencher, side channel, partial curve]	–
O=C(NCc1cccnc1)c1csc2c1CCCC2	inconclusive: 22.4 µM [inhibitor, single point]	–
CCOC(=O)C(=Cc1ccccc1OC)C(=O)OCC	inconclusive: 3.55 µM [fluorescent, side channel, partial curve]	–
COc1cc(/C=N/NC(=O)CCn2c3ccccc3c3ccccc32)ccc1O	inconclusive: 11.2 µM [quencher, side channel, partial curve]	–
O=C(O)c1ccc(/C=N/NC(=O)c2cc(-c3ccc4c5c(cccc35)CC4)n[nH]2)cc1	inconclusive: 22.4 µM [quencher, side channel, partial curve]	–
Oc1ccccc1C1=Nc2ccccc2N=C(c2cccs2)C1	inconclusive: 39.8 µM [inhibitor, single point]	–
CSc1cccc(NC(=O)C2CCCN(S(=O)(=O)c3cccs3)C2)c1 (stereo not drawn)	inconclusive: 31.6 µM [quencher, side channel, single point]	–
Oc1ccc(/C=N/N(Cc2ccccc2)c2ccccc2)cc1	inconclusive: 14.1 µM [quencher, side channel, partial curve]	–
CC[N+]1=C(C)C(C)(C)c2cc(C)ccc21	inconclusive: 1.26 µM [fluorescent, side channel, full curve]	–
Nc1c(N=Nc2cccc(Cl)c2)c(=O)[nH]n1-c1ccccc1	inconclusive: 20 µM [quencher, side channel, partial curve]	–
COc1cc2ccccc2cc1C(=O)Nc1ccc(Cl)cn1	inconclusive: 14.1 µM [inhibitor, partial curve, poor fit]	–
O=C(Nc1ccc(Br)cc1)Nc1ccccc1Cl	inconclusive: 14.1 µM [quencher, partial curve]	–
O=C(O)CCCCCn1c(O)c(C=C2N=c3ccccc3=N2)sc1=S	inconclusive: 31.6 µM [quencher, side channel, single point]	–
O=C(COc1ccccc1-c1ccccc1)N/N=C/c1ccc2ccccc2c1	inconclusive: 25.1 µM [inhibitor, partial curve]	–
CCN(CC)C(=O)CN(c1cc2c(cc1OC)oc1ccccc12)S(=O)(=O)c1ccccc1	inconclusive: 3.16 µM [fluorescent, side channel, single point]	–
CCN1CC(CN(C)Cc2cn(-c3ccc(C)cc3)nc2-c2ccc(F)cc2)CC1=O (stereo not drawn)	inconclusive: 7.94 µM [fluorescent, side channel, partial curve]	–
CCc1nnc(NC(=O)c2ccc(S(=O)(=O)NC3CCCCC3)cc2)s1	inconclusive: 39.8 µM [inhibitor, single point]	–
CCOC(=O)C1(Cc2ccc(OC)cc2)CCN(C(=O)CCN2CCCC2=O)CC1	inconclusive: 28.2 µM [inhibitor, single point]	–
Cc1cccc(-c2nc3ccccc3c(=O)n2NC(=O)/C=C/c2ccc([N+](=O)[O-])cc2)c1	inconclusive: 28.2 µM [quencher, side channel, single point]	–

SMILES	Potency	FP activity change, negative = inhibition
COCCN(C(=O)COC(=O)Cc1cccc2ccccc12)c1c(N)n(Cc2ccccc2)c(=O)[nH]c1=O	inconclusive: 25.1 µM [fluorescent, side channel, single point]	–
CN(CC(=O)NCc1ccccc1)Cc1cccc(F)c1	–	inactive: -2.43%
O=C(CCCOc1ccccc1)Nc1ccc(S(=O)(=O)N2CCOCC2)cc1	inconclusive: 17.8 µM [quencher, side channel, partial curve]	–
COC1C(O)C(CO)OC1n1cnc2c(NC3CCCCC3)ncnc21 (stereo not drawn)	inconclusive: 7.08 µM [fluorescent, side channel, partial curve]	–
COc1cc(/C=N/NC(=O)c2sc(N)c(C#N)c2C)cc(Br)c1O	–	inactive: 12.7%
Cc1cc(Br)c(Cl)cc1NC(=O)CN1C(=O)C2C3CC(c4ccccc4)C(C3)C2C1=O (stereo not drawn)	inconclusive: 4.47 µM [quencher, side channel, full curve]	–
COc1cc(C(=O)ON=C2C3CC4CC(C3)CC2C4)cc(OC)c1OC	inconclusive: 11.2 µM [inhibitor, partial curve]	–
COc1ccccc1NC(=O)CCCNC(=O)Cn1cnc2sc(C)c(C)c2c1=O	inconclusive: 20 µM [quencher, side channel, single point]	–
COc1ccc(OCc2nc3ccccc3n2C(C)C)cc1	inconclusive: 11.2 µM [fluorescent, side channel, partial curve]	–
O=C(Nc1cccc(F)c1)Nc1ccc2c(c1)OCO2	inconclusive: 31.6 µM [quencher, side channel, single point]	–
Cc1ccc(C(=O)N(Cc2nc3ccccc3c(=O)[nH]2)C2CCCC2)cc1	inconclusive: 2.51 µM [fluorescent, side channel, full curve]	–
C#CCOc1c(Cl)cc(/C=C2/C(=O)ON=C2C)cc1OCC	inconclusive: 20 µM [quencher, side channel, partial curve]	–
COCc1cc(C)nc2sc(C(=O)NN)c(-n3cccc3)c12	inconclusive: 14.1 µM [fluorescent, side channel, partial curve]	–
O=C(CCC1CCCCC1)NCc1ccccn1	inconclusive: 39.8 µM [fluorescent, side channel, single point]	–
CCOC(=O)CNC(=S)N(CCCN1CCN(C)CC1)Cc1cccs1	inconclusive: 39.8 µM [inhibitor, partial curve]	–
Cc1noc(C)c1S(=O)(=O)N1CCCC(C(=O)NCC2CCCO2)C1 (stereo not drawn)	inconclusive: 39.8 µM [inhibitor, single point]	–
Cc1ccc(-n2nc3cc(Cl)c(NC(=O)c4ccco4)cc3n2)cc1	inconclusive: 35.5 µM [quencher, side channel, single point]	–
Cc1ccc(F)cc1NCC(=O)Nc1ccc(Br)cc1	inconclusive: 22.4 µM [quencher, side channel, single point]	–
CC1CCCCN1CC(=O)c1c(N)n(Cc2ccccc2)c(=O)n(C)c1=O (stereo not drawn)	inconclusive: 39.8 µM [inhibitor, single point]	–
CCOC(=O)C1C(=O)N(O)CC1c1cccc(Oc2ccccc2)c1 (stereo not drawn)	–	inactive: -19%

SMILES	Potency	FP activity change, negative = inhibition
Cc1ccc(S(=O)(=O)[N-]c2nc3ccccc3nc2-n2cc[n+](CCC(C)C)c2)cc1	inconclusive: 3.55 µM [fluorescent, side channel, partial curve]	–
COc1cc(/C=N/NC(=O)c2cc3ccccc3[nH]2)ccc1O	inconclusive: 28.2 µM [quencher, side channel, single point]	–
CCSCCc1nnc(NC(=O)Nc2cccc(C(F)(F)F)c2)s1	inconclusive: 10 µM [quencher, side channel, partial curve]	–
O=C(CCC(=O)Nc1nnc(C2CCCCC2)s1)Nc1ccccc1	inconclusive: 39.8 µM [fluorescent, single point]	–
CC(C)C(=O)Nc1ccc2c(c1)oc1ccccc12	inconclusive: 39.8 µM [fluorescent, single point]	–
CC(C)(C)NNC(=S)Nc1ccc(S(=O)(=O)N2CCOCC2)cc1	–	inactive: 2.83%
CN1C(=O)c2cccc3c(S(=O)(=O)Nc4ccc(O)c(C(=O)O)c4)ccc1c23	inconclusive: 20 µM [quencher, side channel, partial curve]	–
CCOc1ccc(N=C2NC(=O)S/C2=C\c2ccc(N(C)C)cc2)cc1	active: 31.6 µM	–
Cc1cc(C)c2c(CN3CCC(C)CC3)cc(=O)oc2c1	inconclusive: 12.6 µM [fluorescent, side channel, partial curve]	–
COc1ccc(OC)c(CNc2nc3ccccc3n2CCN2CCCCC2)c1	inconclusive: 15.8 µM [inhibitor, partial curve, poor fit]	–
COc1ccc(Nc2nc(-c3cccs3)cs2)c(OC)c1	inconclusive: 22.4 µM [quencher, side channel, partial curve]	–
COC(=O)c1nn2c(C(F)(F)F)cc(-c3ccc(Br)o3)nc2c1Br	inconclusive: 31.6 µM [quencher, side channel, single point]	–
Cc1ccc(-n2c(N)c(C(=O)NCc3ccco3)sc2=S)cc1	–	inactive: -18.8%
CC(=O)Nc1ccc(Nc2cc(C)nc3c(-c4ccc(Cl)cc4)c(C)nn23)cc1	inconclusive: 22.4 µM [quencher, side channel, single point]	–
CC(C)(C)Sc1ccc2nc3c(n2c1)CCCC3	inconclusive: 20 µM [fluorescent, side channel, single point]	–
CC(C)CCN1C(=O)c2ccc(C(=O)Nc3cc(C(=O)O)cc(C(=O)O)c3)cc2C1=O	inconclusive: 35.5 µM [fluorescent, side channel, single point]	–
Cc1ccc(/C=C2/NC(=O)N(Cc3ccccc3)C2=O)s1	inconclusive: 5.62 µM [quencher, side channel, partial curve]	–
CC1(C)CCC[C@@](C)([C@H]2CC[C@]3(C)[C@@H]2[C@H](O)C[C@@H]2[C@@]4(C)CC[C@H](O)C(C)(C)[C@@H]4[C@@H](O)C[C@]23C)O1	inconclusive: 2.82 µM [fluorescent, side channel, partial curve]	–
